According to PubChem BioAssay AID1460 (National Center for Advancing Translational Sciences (NCATS), 2008):
Among all 270,000 compounds or so, about 5,800 (2.1%) were called active. This list was built around the results that the source calls inconclusive (neither active nor inactive); the mix of calls is not that of the screen. The call rests on the fitted dose curve; in most records, active means well fitted inhibition curve with a large enough effect; inconclusive means small, poorly fitted or top-dose-only effect; inactive means flat fitted curve, though single readings scatter. A potency beside an inconclusive call is a rough fit, not a confirmed value.

Molecular target: Microtubule-associated protein tau (Homo sapiens) (UniProt P10636)
Experiment: qHTS for Inhibitors of Tau Fibril Formation, Thioflavin T Binding; further: nearly all actives have a fitted effect of over 55% in size
Settings: recombinant tau K18 P301L (four-repeat tau fragment), heparin-induced fibrillization, ThT fluorescence; series mostly up to 57.4 µM
Outline: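 Heparin-induced fibrillization of the P301L-mutant K18 repeat-domain fragment of human tau was followed by ThT binding in quantitative high-throughput format.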
Potency means the concentration at half of the fitted maximal effect; tags describe the fitted curve by direction and shape.

Chain of UniProt P10636 (P10636 whole entry, looked up): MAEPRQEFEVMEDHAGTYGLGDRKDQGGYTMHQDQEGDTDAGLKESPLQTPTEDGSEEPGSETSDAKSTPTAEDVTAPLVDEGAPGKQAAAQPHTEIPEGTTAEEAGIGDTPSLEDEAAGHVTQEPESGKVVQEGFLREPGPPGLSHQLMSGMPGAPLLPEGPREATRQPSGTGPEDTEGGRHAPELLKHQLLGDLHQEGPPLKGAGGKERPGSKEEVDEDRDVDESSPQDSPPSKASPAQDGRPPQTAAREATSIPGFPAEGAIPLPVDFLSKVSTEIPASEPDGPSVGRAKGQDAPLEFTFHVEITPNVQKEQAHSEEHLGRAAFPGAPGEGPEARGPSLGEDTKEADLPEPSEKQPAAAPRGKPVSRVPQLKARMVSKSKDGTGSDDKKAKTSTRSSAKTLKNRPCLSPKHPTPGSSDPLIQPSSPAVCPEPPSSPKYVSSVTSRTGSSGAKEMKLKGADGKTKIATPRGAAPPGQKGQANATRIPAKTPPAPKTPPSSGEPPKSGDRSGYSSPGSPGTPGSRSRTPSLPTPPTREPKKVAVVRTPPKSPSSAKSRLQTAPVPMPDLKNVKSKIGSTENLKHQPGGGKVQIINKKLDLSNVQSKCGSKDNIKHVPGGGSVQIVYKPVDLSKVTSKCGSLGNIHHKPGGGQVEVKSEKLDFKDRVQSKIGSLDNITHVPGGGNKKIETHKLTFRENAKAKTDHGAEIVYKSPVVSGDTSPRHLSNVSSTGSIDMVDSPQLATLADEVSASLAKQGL

Compound | Potency
CC(C)(C)c1ccc2c(c1)OC(C(=O)N/N=C\c1ccc(-c3cccc(C(=O)O)c3)o1)CO2 (stereo unspecified) | inconclusive: 7.08 µM [inhibitor, partial curve]
